Test results reported in the supplement of paper PMC12578646, “Prodrug florfenicol amine is activated by intrinsic resistance to target Mycobacterium abscessus” (Nature Microbiology, 2025).

Assays:
[1] = test system: Mycobacterium abscessus ATCC 19977 WhiB7 F24fs
Method: (§1)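 384-well two-fold dose series, two replicates; 5 days at 37 °C, then 24 h with resazurin; fluorescence scaled to growth and killed controls.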

[2] = test system: Mycobacterium abscessus ATCC 19977 Eis2 E120fs
Method: as §1

[3] = test system: Mycobacterium abscessus ATCC 19977 ΔwhiB7
Method: as §1

[4] = test system: Mycobacterium abscessus ATCC 19977 Eis2 Y284*
Method: as §1

[5] = test system: Mycobacterium abscessus ATCC 19977 Eis2 Y255*
Method: as §1

[6] = test system: Mycobacterium abscessus ATCC 19977 WhiB7 R76del
Method: as §1

[7] = test system: Mycobacterium abscessus ATCC 19977 Δeis2
Method: as §1

[8] = test system: Mycobacterium abscessus ATCC 19977 Eis2 Y227D
Method: as §1

[9] = test system: Mycobacterium abscessus ATCC 19977 WhiB7 L37P
Method: as §1

[10] = test system: Mycobacterium abscessus ATCC 19977 Eis2 T258R
Method: as §1

[11] = test system: Mycobacterium abscessus ATCC 19977 WhiB7 A51T
Method: as §1

[12] = test system: Mycobacterium abscessus ATCC 19977 WhiB7 T70fs
Method: as §1

[13] = test system: Mycobacterium abscessus ATCC 19977 WhiB7 F24fs; experiment: growth relative to untreated wells; higher = more growth (less inhibition)
Method: as §1

[14] = test system: Mycobacterium abscessus ATCC 19977 Eis2 E120fs; experiment: as above
Method: as §1

[15] = test system: Mycobacterium abscessus ATCC 19977 ΔwhiB7; experiment: as above
Method: as §1

[16] = test system: Mycobacterium abscessus ATCC 19977 Eis2 Y284*; experiment: as above
Method: as §1

[17] = test system: Mycobacterium abscessus ATCC 19977 Eis2 Y255*; experiment: as above
Method: as §1

[18] = test system: Mycobacterium abscessus ATCC 19977 WhiB7 R76del; experiment: as above
Method: as §1

[19] = test system: Mycobacterium abscessus ATCC 19977 Δeis2; experiment: as above
Method: as §1

[20] = test system: Mycobacterium abscessus ATCC 19977 Eis2 Y227D; experiment: as above
Method: as §1

[21] = test system: Mycobacterium abscessus ATCC 19977 WhiB7 L37P; experiment: as above
Method: as §1

[22] = test system: Mycobacterium abscessus ATCC 19977 Eis2 T258R; experiment: as above
Method: as §1

[23] = test system: Mycobacterium abscessus ATCC 19977 WhiB7 A51T; experiment: as above
Method: as §1

[24] = test system: Mycobacterium abscessus ATCC 19977 WhiB7 T70fs; experiment: as above
Method: as §1

C[C@@H]1NC(=O)[C@@H](N)CNC(=O)[C@H](C2CCNC(=N)N2)NC(=O)/C(=C/NC(N)=O)NC(=O)[C@H](CNC(=O)CC(N)CCCN)NC1=O.N=C1NCCC([C@@H]2NC(=O)/C(=C/NC(N)=O)NC(=O)[C@H](CNC(=O)CC(N)CCCN)NC(=O)[C@H](CO)NC(=O)[C@@H](N)CNC2=O)N1 (stereo partly specified) [capreomycin]
Conditions	IC50 [µg/mL]
[1]	3.49
[2]	3.53
[3]	3.57
[4]	3.52
[5]	3.55
[6]	3.51
[7]	3.6
[8]	3.38
[9]	3.51
[10]	3.66
[11]	3.4
[12]	3.71

Conditions	growth [%]
[13], 0.5 µg/mL	119.1
[13], 1 µg/mL	120
[13], 2 µg/mL	135
[13], 4 µg/mL	11.4
[13], 8 µg/mL	1.48
[13], 16 µg/mL	1.16
[13], 32 µg/mL	0.805
[13], 64 µg/mL	0.28
[13], 128 µg/mL	0.576
[13], 256 µg/mL	0.201
[13], 512 µg/mL	0.913
[13], 1024 µg/mL	1.6
[14], 0.5 µg/mL	118
[14], 1 µg/mL	126
[14], 2 µg/mL	140
[14], 4 µg/mL	23.1
[14], 8 µg/mL	4.73
[14], 16 µg/mL	1.31
[14], 32 µg/mL	0.876
[14], 64 µg/mL	0.449
[14], 128 µg/mL	-0.0341
[14], 256 µg/mL	0.766
[14], 512 µg/mL	0.987
[14], 1024 µg/mL	1.55
[15], 0.5 µg/mL	111
[15], 1 µg/mL	133
[15], 2 µg/mL	155
[15], 4 µg/mL	6.4
[15], 8 µg/mL	-0.338
[15], 16 µg/mL	-0.815
[15], 32 µg/mL	-1.5
[15], 64 µg/mL	7.37
[15], 128 µg/mL	-1.6
[15], 256 µg/mL	-1.48
[15], 512 µg/mL	-0.81
[15], 1024 µg/mL	-0.752
[16], 0.5 µg/mL	121
[16], 1 µg/mL	121.5
[16], 2 µg/mL	139
[16], 4 µg/mL	18.1
[16], 8 µg/mL	2.85
[16], 16 µg/mL	0.96
[16], 32 µg/mL	0.251
[16], 64 µg/mL	-0.229
[16], 128 µg/mL	-0.471
[16], 256 µg/mL	0.518
[16], 512 µg/mL	0.442
[16], 1024 µg/mL	1.21
[17], 0.5 µg/mL	113.8
[17], 1 µg/mL	126.2
[17], 2 µg/mL	143
[17], 4 µg/mL	15.7
[17], 8 µg/mL	0.798
[17], 16 µg/mL	-0.497
[17], 32 µg/mL	-0.78
[17], 64 µg/mL	-1.06
[17], 128 µg/mL	-1.38
[17], 256 µg/mL	-0.716
[17], 512 µg/mL	-0.456
[17], 1024 µg/mL	-0.208
[18], 0.5 µg/mL	116
[18], 1 µg/mL	116
[18], 2 µg/mL	136
[18], 4 µg/mL	13.4
[18], 8 µg/mL	1.25
[18], 16 µg/mL	-0.0257
[18], 32 µg/mL	0.128
[18], 64 µg/mL	-0.0579
[18], 128 µg/mL	-0.442
[18], 256 µg/mL	-0.208
[18], 512 µg/mL	0.668
[18], 1024 µg/mL	1
[19], 0.5 µg/mL	106
[19], 1 µg/mL	119
[19], 2 µg/mL	137
[19], 4 µg/mL	26.1
[19], 8 µg/mL	2.69
[19], 16 µg/mL	0.457
[19], 32 µg/mL	-0.264
[19], 64 µg/mL	-0.648
[19], 128 µg/mL	1.68
[19], 256 µg/mL	-0.363
[19], 512 µg/mL	0.101
[19], 1024 µg/mL	0.656
[20], 0.5 µg/mL	123.8
[20], 1 µg/mL	126
[20], 2 µg/mL	150
[20], 4 µg/mL	20.2
[20], 8 µg/mL	21.8
[20], 16 µg/mL	1.97
[20], 32 µg/mL	1.24
[20], 64 µg/mL	1.33
[20], 128 µg/mL	1.37
[20], 256 µg/mL	1.64
[20], 512 µg/mL	2.29
[20], 1024 µg/mL	2.65
[21], 0.5 µg/mL	114
[21], 1 µg/mL	128
[21], 2 µg/mL	136.1
[21], 4 µg/mL	13.3
[21], 8 µg/mL	1.32
[21], 16 µg/mL	0.68
[21], 32 µg/mL	0.343
[21], 64 µg/mL	0.195
[21], 128 µg/mL	-0.116
[21], 256 µg/mL	0.482
[21], 512 µg/mL	1
[21], 1024 µg/mL	1.1
[22], 0.5 µg/mL	113
[22], 1 µg/mL	119.5
[22], 2 µg/mL	134.37
[22], 4 µg/mL	29.4
[22], 8 µg/mL	1.54
[22], 16 µg/mL	0.295
[22], 32 µg/mL	-0.237
[22], 64 µg/mL	-0.654
[22], 128 µg/mL	-0.5
[22], 256 µg/mL	-0.403
[22], 512 µg/mL	0.194
[22], 1024 µg/mL	0.34
[23], 0.5 µg/mL	114
[23], 1 µg/mL	122
[23], 2 µg/mL	146
[23], 4 µg/mL	19.1
[23], 8 µg/mL	16.6
[23], 16 µg/mL	0.686
[23], 32 µg/mL	0.587
[23], 64 µg/mL	-0.0268
[23], 128 µg/mL	-0.0162
[23], 256 µg/mL	0.338
[23], 512 µg/mL	1.07
[23], 1024 µg/mL	1.58
[24], 0.5 µg/mL	116
[24], 1 µg/mL	118
[24], 2 µg/mL	130
[24], 4 µg/mL	19.3
[24], 8 µg/mL	-0.988
[24], 16 µg/mL	-2.1
[24], 32 µg/mL	-2.36
[24], 64 µg/mL	-2.07
[24], 128 µg/mL	-1.98
[24], 256 µg/mL	-1.82
[24], 512 µg/mL	0.33
[24], 1024 µg/mL	-0.694

M. abscessus ATCC 19977 and its deletion, point and complemented mutants after 5 days of drug at 37 °C plus 24 h of resazurin. Growth in % of untreated wells at the dose given (lower = more inhibition); checkerboards give % inhibition (higher = more inhibition); IC50 from the fitted curve (lower = more potent). No active / inactive call. IC50 values come from the same 384-well curves. Growth is not capped and can exceed 100%. The direction of the checkerboard scale is read from the raw signals. Capreomycin is a mixture.
